The values that follow come from PubChem BioAssay AID1963576 (National Center for Advancing Translational Sciences (NCATS), 2024).

Hit rate of the full screen: of about 46,000 compounds, about 60 (0.1%) were called active. Roughly 3% stayed inconclusive and do not appear here. The call rests on the fitted dose curve; in most records, active means well fitted inhibition curve with a large enough effect; inconclusive means small, poorly fitted or top-dose-only effect; inactive means no such curve, though single readings can be large or run the other way. This is one part of the list.

The nature of the assay: Primary qHTS assay for Inhibitors of ovarian cancer metastasis using an organotypic tumor microenvironment (TME) model. Further: nearly all actives have a fitted effect of over 65% in size.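 On activity change, negative = inhibition: plate controls were DMSO wells for no effect and tomatine positive control wells for full effect.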 As to conditions: SKOV3ip1-GFP adhesion/invasion on 3D omental model, fluorescence; series mostly up to 45.8 µM; activity change, negative = inhibition: at the top concentration. Summed up:
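Primary human omental fibroblast/mesothelial 3D culture pre-formed 48 h. SKOV3ip1-GFP cells added with compounds (0.36-46 umol/L), incubated 2 h RT/16 h 37 C, fixed; GFP cells quantified at 488/509 nm.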
Take `CN1CCN(C(=O)C(=O)Nc2c3c(nn2-c2ccc(F)cc2)CSC3)CC1`: the “activity change, negative = inhibition” value is inactive: -11.3%. Regarding `COc1ccc(-c2nc3scc(CCNS(=O)(=O)c4c(C)noc4C)n3n2)cc1`, the call was inactive.

As for `Cc1ccc(NC(=O)/C=C/c2ccccc2)c(Br)c1`, the “activity change, negative = inhibition” value is inactive: 0.42%. On the same count and under the same terms, the result for `COc1ccc(N2CCN(C(=O)Cn3cnc4nc5c(cc4c3=O)CCCC5)CC2)cc1` reads inactive: -4.13%; that for `Cc1ccc(S(=O)(=O)NCCc2nnc3ccc(SCc4ccccc4C)nn23)cc1`, inactive: -0.976%. Same read-out and setting: the result for `CC(=O)O[C@@]12CO[C@H]1C[C@H](O)[C@@]1(C)C(=O)[C@H](O)C3=C(C)[C@@H](OC(=O)C(O)[C@@H](NC(=O)OC(C)(C)C)c4ccccc4)C[C@@](O)([C@@H](OC(=O)c4ccccc4)[C@@H]21)C3(C)C` (stereo partly drawn) reads inactive: 0.637%.

Regarding `COc1ccc(/C=C\c2onc(C)c2S(=O)(=O)N2CCC(C(=O)Nc3ccccc3OC)CC2)cc1`, the result was inactive.

For `CCOC(=O)c1cccc(NC(=O)c2cc(CN3CCCC3)on2)c1`, the “activity change, negative = inhibition” value is inactive: -0.704%.

Consider `Cc1ccc(OC(=O)c2cc(-c3ccc4c(c3)OCCO4)on2)c(C)c1`, for which the “activity change, negative = inhibition” value is inactive: -11.3%. The same measure, in the same setting: the result for `CCc1nn(CCCC(=O)NCc2ccccc2Br)c(=O)c2cc3occc3n12` reads inactive: -15.2%; that for `CC1CCN(S(=O)(=O)c2ccc3c(c2)N(CC(=O)NC(C)C)C(=O)CS3)CC1`, inactive: 10.4%.

On to `Cc1ccc(Cn2cccc2C2=NC(C)(C)CO2)cc1`, for which the outcome was inactive.

`COc1ccccc1OC(C)C(=O)NCC1(N2CCOCC2)CCCCC1` (stereo not drawn): the compound was called inactive. With `CCS(=O)(=O)N1N=C(c2ccc(C)cc2)CC1c1cc2ccc(OC)cc2nc1Cl` (stereo not drawn), the “activity change, negative = inhibition” value is inactive: 7.98%. For `Cc1ccc(OCC(=O)NCC2(N3CCN(C)CC3)CCCCC2)cc1C`, the “activity change, negative = inhibition” value is inactive: 4.36%. For `CCCC(=O)N1c2ncnn2C2(CCCCC2)[C@@H]2CCCC[C@@H]21`, the “activity change, negative = inhibition” value was inactive: -0.706%.

As for `CCCCOc1ccc(-c2nonc2NC(=O)c2ccco2)cc1`, the “activity change, negative = inhibition” value was inactive: -1.57%. On to `COc1ccc(NC(=O)CCNS(=O)(=O)c2cccc3nonc23)cc1`, for which the result was inactive.

Take `CN(C)c1ccc(CNc2nc(-c3ccco3)nn2S(=O)(=O)c2ccc3ccccc3c2)cc1`: the “activity change, negative = inhibition” value was inactive: 5.63%. Regarding `O=C(CSc1nc2c(c(=O)[nH]1)CCC2)Nc1ccccc1F`, the “activity change, negative = inhibition” value is inactive: 16.9%. Same read-out and setting: with `COc1ccc(NC(=O)Cn2cnc3sc(C)c(S(=O)(=O)N4CCN(C)CC4)c3c2=O)cc1OC` the figure was inactive: -4.46%; with `Cc1ccc(C)c(NC(=O)Cn2cc(C(=O)c3ccncc3)c(=O)c3cc(F)ccc32)c1`, inactive: -0.492%.

On to `CCOc1ccc(CNC(=O)c2cc3oc4ccccc4c3n2C)cc1`, for which the result was inactive. With `COc1ccccc1CNc1ccc(-c2nc(C(C)C)no2)cc1[N+](=O)[O-]`, the “activity change, negative = inhibition” value is inactive: -1.39%. `Cc1c(Cl)ccc2sc(N3CCN(C(=O)c4ccco4)CC3)nc12`: the outcome was inactive. Regarding `Cc1ccc(CCNC(=O)CN(c2ccc(C)cc2)S(=O)(=O)c2c(C)noc2C)cc1`, the “activity change, negative = inhibition” value is inactive: 8.83%. On to `CC(C)CCOc1ccc(C(=O)Nc2sc3c(c2C#N)CCCCC3)cc1`, for which the “activity change, negative = inhibition” value is inactive: -15.9%. Still for that read-out and setting: with `CCc1cc(Nc2nccc(-c3c(-c4ccc(OC)c(C(=O)Nc5c(F)cccc5F)c4)nc4ccccn34)n2)c(OC)cc1N1CCC(N2CCN(S(C)(=O)=O)CC2)CC1` the figure was inactive: 2.13%; with `O=C(Nc1ccc(F)cc1)[C@H](Cc1ccccc1)N1Cc2ccccc2C1=O`, inactive: -25.8%; with `CCOC(=O)C1CCN(C(c2ccccc2OC)c2c(O)cc(C)n(CCOC)c2=O)CC1` (stereo not drawn), inactive: 0.502%. Take `COc1cccc(-c2nc(-c3ccc(-c4ccccc4)nc3OC)no2)c1`: the “activity change, negative = inhibition” value is inactive: 1.01%.

On to `Cc1ccccc1-c1nc(CNC(=O)Nc2ccccc2)c(C)o1`, for which the “activity change, negative = inhibition” value was inactive: 4.28%. The same measure, in the same setting: with `Cc1ccccc1OCc1ccc(-c2nc(C#N)c(NCCCN(C)C)o2)o1` the figure was inactive: -1.32%; with `Cc1ccc(C(=O)Nc2ccc(Cl)c(-c3nc4ncccc4o3)c2)c(C)c1`, inactive: 7.17%. Take `CCOc1ccc(C(=O)NCCn2cc(SCC(=O)NCCc3ccc(OC)c(OC)c3)c3ccccc32)cc1`: the “activity change, negative = inhibition” value is inactive: -1.99%. In the case of `COC(=O)c1ccc(Nc2ncnc3c2nc2n3CCCC2)cc1`, the result was inactive. Still for that read-out and setting: the result for `CCOc1ccccc1NC(=O)C1CCN(S(=O)(=O)c2c(C)noc2/C=C/c2ccc(C)cc2)CC1` reads “inactive”. In the case of `COc1ccccc1-c1nc(-c2ccc(Br)o2)no1`, the outcome was inactive. The same measure, in the same setting: with `Cc1cccc(-n2c(SCC(N)=O)nc3c(oc4ccccc43)c2=O)c1` the entry was “inactive”. With `O=C(Nc1ccccc1)c1cccc2c(=O)c3c([nH]c12)CCCC3`, the “activity change, negative = inhibition” value is inactive: 1.6%. As to `CCOC(=O)N1CCN(C(=O)CN(c2cccc(Cl)c2C)S(=O)(=O)c2ccc(C)cc2)CC1`, the result was inactive. The same measure, in the same setting: the result for `COc1ccc(Cl)cc1NC(=O)Cn1ccn(Cc2ccc(C)cc2)c(=O)c1=O` reads “inactive”; that for `O=C(c1cc2c(=O)oc3ccccc3c2s1)N1CCN(c2cccc(Cl)c2)CC1`, “inactive”; that for `COc1ccccc1OCCn1cc(C(=O)c2cccs2)c2ccccc21`, “inactive”.

On to `Cc1ccc(-n2nc3c(N4CCC(C(=O)NC(C)C)CC4)nnc(C)c3c2C)cc1`, for which the “activity change, negative = inhibition” value was inactive: 9.5%. Turning to `Cc1nn(CC(=O)NC2CC2)c(=O)c2cc3ccccc3n12`, the compound was classed as inactive.

`Cn1c(SCc2ccc(F)cc2)nc2ccc(C(=O)NCc3ccc(F)cc3)cc21`: the “activity change, negative = inhibition” value was inactive: 4.71%.

Take `CCN(CC)CCN(C(=O)c1ccco1)c1nc2ccc(Cl)cc2s1`: the “activity change, negative = inhibition” value is inactive: -11.3%.
